Among the test systems are UACC-62 melanoma; TK-10 renal; MCF7 breast.
What all share (test): NCI-60 one-dose screen, 48 h (100 = growth as untreated, 0 = no growth, -100 = all killed)
Common to all, as to conditions: 100 µM

More than one record can exist for a structure, and the calls need not agree.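 Activity criterion: percent growth below 10, measured after cells in 96-well plates were exposed to a single compound concentration for 48 hours.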 Not every entry of the source has a single result; some have several. The other results are left out here. The source may hold further records. Values that stand side by side are repeats in other runs, samples, wells, individuals or studies. Records carry a tag for their origin. Letters hold for one entry only. Marks such as [2022-09] give the month of the run.

In the case of `Cc1ccc(OCC2OC(n3cnc4c(Cl)ncnc43)CC2Oc2ccc(C)cc2)cc1` (stereo not given), the growth entry with UACC-62 melanoma was “active: -73.8%, -86.5% [sample A, 1996-04] and active: 2.39%, -100% [sample B, 1996-04]”; in the assay on TK-10 renal it was “inactive: 106% [sample A, 1996-04] and active: -66.5% [sample A, 1996-04] and inactive: 102% [sample B, 1996-04] and active: -97.6% [sample B, 1996-04]”; in the assay on MCF7 breast it was “active: -1.99%, -84.9% [sample A, 1996-04] and inactive: 13.8% [sample B, 1996-04] and active: -97.2% [sample B, 1996-04]”.
In the case of `O=C1NC(N/N=C\C(O)C(O)C(O)C(O)CO)=N/C1=C/c1ccc(Cl)cc1` (stereo not given), the growth entry was “inactive: 67.7% [sample A, 1996-03] and active: 8.24% [sample A, 1996-03] and inactive: 83.2% [sample B, 1996-03] and active: -84.8% [sample B, 1996-03]” with UACC-62 melanoma; “inactive: 118%, 47.2% [sample A, 1996-03] and inactive: 120% [sample B, 1996-03] and active: -42.4% [sample B, 1996-03]” with TK-10 renal; “inactive: 62.6%, 46.6% [sample A, 1996-03] and inactive: 68.9% [sample B, 1996-03] and active: 5.52% [sample B, 1996-03]” with MCF7 breast.
Take `O=C1NC(N/N=C\C(O)C(O)C(O)CO)=N/C1=C/c1ccccc1` (stereo not given): the growth entry is “inactive: 87.2%, 26.1% [sample A, 1996-03] and inactive: 68.7% [sample B, 1996-03] and active: -100% [sample B, 1996-03]” in the assay on UACC-62 melanoma; “inactive: 141%, 68.9% [sample A, 1996-03] and inactive: 124% [sample B, 1996-03] and active: -49.6% [sample B, 1996-03]” in the assay with TK-10 renal; “inactive: 80.6%, 28.9% [sample A, 1996-03] and inactive: 58.6% [sample B, 1996-03] and active: -44.6% [sample B, 1996-03]” in the assay on MCF7 breast.
As to `O=C1NC(N/N=C\C(O)C(O)C(O)CO)=N/C1=C/c1ccc(Cl)cc1` (stereo not given), in the assay on MCF7 breast, the growth result was “inactive: 12.1% [sample A, 1996-03] and active: -63.1% [sample A, 1996-03] and inactive: 32.6% [sample B, 1996-03] and active: -100% [sample B, 1996-03]”.

The values above are taken from PubChem BioAssay (NCI).
